These results are taken from PMC4336329 (PLoS ONE, 2015).

The campaign covered roughly 310,000 compounds. About 14,000 (4.5%) showed an effect of 50% or more. Effects have a minus sign here. The list shows a part of the results.
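Also: peak tail current of the secondary pulse compared with the same well before compound.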

In this assay the target is human ether-à-go-go-related gene (hERG) potassium channel (human, UniProt Q12809). Description: primary screen, population patch clamp on CHO cells stably expressing hERG.
Chain of human ether-à-go-go-related gene (hERG) potassium channel (Q12809 whole entry, looked up): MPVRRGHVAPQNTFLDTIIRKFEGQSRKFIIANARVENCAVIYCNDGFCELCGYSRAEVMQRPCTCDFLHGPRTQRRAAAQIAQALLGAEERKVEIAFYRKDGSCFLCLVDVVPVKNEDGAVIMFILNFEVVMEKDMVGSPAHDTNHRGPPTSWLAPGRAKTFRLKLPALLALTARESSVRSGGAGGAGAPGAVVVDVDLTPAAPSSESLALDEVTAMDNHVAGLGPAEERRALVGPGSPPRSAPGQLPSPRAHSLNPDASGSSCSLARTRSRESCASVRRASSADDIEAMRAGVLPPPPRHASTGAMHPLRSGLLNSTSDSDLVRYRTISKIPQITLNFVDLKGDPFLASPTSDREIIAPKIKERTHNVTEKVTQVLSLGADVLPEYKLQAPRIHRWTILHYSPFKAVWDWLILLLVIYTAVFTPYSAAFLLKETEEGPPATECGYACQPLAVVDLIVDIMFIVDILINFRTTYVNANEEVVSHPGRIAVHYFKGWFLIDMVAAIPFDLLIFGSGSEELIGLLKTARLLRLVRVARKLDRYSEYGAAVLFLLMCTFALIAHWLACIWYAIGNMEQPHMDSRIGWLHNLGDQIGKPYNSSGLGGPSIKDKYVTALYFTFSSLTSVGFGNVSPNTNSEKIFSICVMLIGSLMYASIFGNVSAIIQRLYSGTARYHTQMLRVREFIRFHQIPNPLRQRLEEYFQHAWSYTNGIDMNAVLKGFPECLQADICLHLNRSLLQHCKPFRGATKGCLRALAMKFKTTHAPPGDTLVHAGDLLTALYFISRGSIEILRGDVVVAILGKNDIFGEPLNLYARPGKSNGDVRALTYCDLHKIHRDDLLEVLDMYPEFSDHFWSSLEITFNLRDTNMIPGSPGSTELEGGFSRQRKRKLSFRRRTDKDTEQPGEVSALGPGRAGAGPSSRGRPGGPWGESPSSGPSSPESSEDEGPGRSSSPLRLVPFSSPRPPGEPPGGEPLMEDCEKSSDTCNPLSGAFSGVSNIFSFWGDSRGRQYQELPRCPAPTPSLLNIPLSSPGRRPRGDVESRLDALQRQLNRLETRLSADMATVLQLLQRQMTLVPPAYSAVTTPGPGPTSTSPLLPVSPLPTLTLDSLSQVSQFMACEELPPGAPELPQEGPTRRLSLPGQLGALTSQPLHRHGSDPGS
For the compound `O=C(Nc1ccccc1C(=O)Nc1ccc(Br)cn1)c1ccccc1Cl`, the “hERG current change (%, negative = inhibition) at 10uM” value is given as -9.43%.
As to `Cc1nc2ccc(N)cc2c(=O)n1Cc1ccc(Cl)cc1`, the “hERG current change (%, negative = inhibition) at 10uM” value is listed as -11.4%.
Regarding `Fc1ccc(OCc2nc(-c3ccc(Br)o3)no2)c(F)c1`, the “hERG current change (%, negative = inhibition) at 10uM” value is recorded as 2.46%.
In the case of `Cc1nn2c(COc3ccc(NC(=O)C(C)C)cc3)nnc2c2ccccc12`, the “hERG current change (%, negative = inhibition) at 10uM” value is -5.01%.
To `CC(NC(=O)COC(=O)C1=COCCO1)C12CC3CC(CC(C3)C1)C2` (centres unmarked) belongs 13.7%; to `COc1ccccc1C(=O)NNC(=O)CN1C(=O)c2ccccc2C1=O`, 14.3%.
Regarding `CN(c1cccc(NS(=O)(=O)c2cccc([N+](=O)[O-])c2)c1)S(C)(=O)=O`, the “hERG current change (%, negative = inhibition) at 10uM” value was determined as 4.42%.
On to `CCOc1ccc(CNCc2ccccc2Cl)cc1.Cl`, for which the “hERG current change (%, negative = inhibition) at 10uM” value was -55.3%.
The value for `O=C(COc1cccc(Br)c1)NN=C1c2ccccc2-c2ccccc21` was -6.17%.
The value for `CCCNC(=O)NC(=O)CSc1nnc(-c2c[nH]c3ccccc23)o1` was 8.3%; that for `Cc1cc(N2CCN(Cc3cn(C)nc3-c3cccc(Cl)c3)CC2)cc(C)n1` was -65%.
The value for `CN1CCN(CC(=O)Nc2ccc(S(=O)(=O)N(C)C)cc2)CC1.O=C(O)C(=O)O` was 6.74%.
With `Cn1cc(C(=O)NC2CCCCC2)c(=O)c2cc(S(=O)(=O)N3CCCC3)ccc21`, the “hERG current change (%, negative = inhibition) at 10uM” value is -12.1%.
The value for `O=C(COc1ccc(Cl)cc1)NCC(=O)N1CCC2(CC1)NCCc1[nH]cnc12` was 7.16%; that for `Cc1ccc(C(=O)Nc2cccc([N+](=O)[O-])c2)cc1S(=O)(=O)Nc1ccc(C(=O)O)cc1` was 11.7%.
On to `Nc1ccc(Sc2cnn(-c3ccccc3)c(=O)c2Cl)cc1`, for which the “hERG current change (%, negative = inhibition) at 10uM” value is listed as -35.9%.
`COc1ccc(C(=O)N2CC3(CC(c4ccc(Cl)cc4)=NO3)C[C@H]2C(=O)NCC(N)=O)cc1` (some centres unmarked): the “hERG current change (%, negative = inhibition) at 10uM” value amounted to 9.04%.
To `O=C(CC12CC3CC(CC(C3)C1)C2)Nc1cccc2ncccc12` belongs -23%.
Consider `O=c1oc2ccccc2c(N2CCCC2)c1CN1CCCC1`, for which the “hERG current change (%, negative = inhibition) at 10uM” value is given as 13%.
The value for `Cc1c(C(=O)OC2CCCCC2)[nH]c2c1C(=O)CC(C)(C)C2` was -2.98%; that for `COC(=O)Cn1cccc1C(=O)c1ccccc1` was -4.73%; that for `Cc1ccc(OCC(=O)NS(=O)(=O)c2ccccc2)cc1` was 18.6%.
Turning to `Cc1cccc(CS(=O)(=O)Cc2ccc(C(=O)NCCCN3CCCC3)o2)c1`, the “hERG current change (%, negative = inhibition) at 10uM” value was -10.8%.
To `O=C(NCC(=O)N1CCN(C/C=C/c2ccccc2)CC1)c1ccc(OC(F)F)cc1` belongs -79.5%.
To `COc1cc(C(=O)Nc2nnc(S(=O)(=O)N3CCCCCC3)s2)cc(OC)c1OC` belongs -25.9%; to `O=[N+]([O-])c1ccc(CSc2nnc(Cc3ccccc3)o2)cc1`, -11.1%.
To `CCOC(=O)c1ccc(S(=O)(=O)N2CCN(CCC#N)CC2)cc1` belongs -14.7%.
With `CCOc1ccc(NC(=O)CC2C(=O)N(c3ccccc3)C(=S)N2Cc2ccccn2)cc1` (centres unmarked), the “hERG current change (%, negative = inhibition) at 10uM” value is on record as -14.1%.
To `COc1cccc(CN(C)C(=O)c2ccc(NS(=O)(=O)c3ccc4[nH]c(=O)[nH]c4c3)cc2)c1OC` belongs 6.28%.
To `CCN(CC)S(=O)(=O)c1cc(C(=O)Oc2cccc(-c3cnc4ccccc4n3)c2)ccc1OC` belongs 4.19%; to `CCC(CC)C(=O)Nc1ccncc1`, 23.9%.
To `CCOC(=O)c1c(/N=C/C2C(=O)NC(=O)NC2=O)sc2c1CCC2` belongs 24.3%.
Regarding `Cc1ccc(CS(=O)Cc2ccc(C(=O)N3CCOCC3)o2)cc1` (centres unmarked), the “hERG current change (%, negative = inhibition) at 10uM” value was -33.3%.
For `CCCn1cc(S(=O)(=O)c2ccc(OC)cc2)c(=O)c2cc(OCC)ccc21`, the “hERG current change (%, negative = inhibition) at 10uM” value is -15.3%.
The value for `OC(Cn1cncn1)(c1ccccc1)c1ccccc1` was -6.81%; that for `N#Cc1c(-c2ccc(Cl)cc2)nc2n(c1=O)CCCS2` was -9.38%; that for `CCCCS(=O)CC(CS(=O)CCCC)OC(=O)c1ccccc1` (centres unmarked) was -35.2%.
To `CC(C)(C)c1ccc(-c2noc(CCC(=O)NCC3CCCO3)n2)cc1` (centres unmarked) belongs -1.45%.
The value for `COc1ccc(S(=O)(=O)N(Cc2nc3ccccc3c(=O)[nH]2)C2CCCC2)cc1` was -32%; that for `CCCc1nc2oc3c(NCCCN(C)C)ncnc3c2c2c1CCCC2` was -3.16%.
With `O=C(c1ccccc1Sc1ccccc1[N+](=O)[O-])N1CCCCC1`, the “hERG current change (%, negative = inhibition) at 10uM” value was -2.95%.
The value for `CCCCc1ccc(CC(=O)O)cc1` was 15.4%; that for `CC(=O)N1CCN(c2ccc(S(=O)(=O)NCCN(C(C)C)C(C)C)cc2[N+](=O)[O-])CC1` was 10.3%; that for `CCOc1ccc(C(C)=O)cc1COc1ccc(-n2cnnn2)cc1` was -31.6%.
Take `CCOC(=O)CNc1ccc(OC(F)(F)F)cc1`: the “hERG current change (%, negative = inhibition) at 10uM” value is on record as -3.87%.
To `COC(=O)c1cn(C(=O)/C=C/c2ccc(OC)c(OC)c2)c2ccccc12` belongs 15.3%; to `Cc1ccc(C(CNS(=O)(=O)c2ccc(Br)cc2)N2CCN(C)CC2)cc1` (centres unmarked), -72.4%.
The value for `COCCCNC(=O)CSc1nc2c(sc(=S)n2-c2cc(Cl)ccc2OC)c(=O)[nH]1` was 7.72%.
For `O=C(CNC(=O)c1ccccc1)NCc1ccc(Cl)cc1`, the “hERG current change (%, negative = inhibition) at 10uM” value is 18.8%.
The value for `COc1cc(/C=C/C(=O)OCC(=O)Nc2cccc(Oc3ccccc3)c2)ccc1O` was -9.11%; that for `CC(=O)c1c(C)[nH]c(C(=O)OCC(=O)Nc2cc(S(=O)(=O)N3CCCC3)ccc2Cl)c1C` was 6.16%.
The value for `COc1ccc(CCNC(=O)C2Cc3ccccc3C(=O)O2)cc1` (centres unmarked) was -1.35%.
To `COc1cccc(NC(=O)c2nnn(Cc3ccc(Br)cc3F)c2N)c1` belongs -2.79%; to `CCOc1ccc(S(=O)(=O)N2CCC(C(=O)NC3CC3)CC2)cc1C`, -0.852%.
Take `Cn1c(=O)[nH]c(=O)c2c1nc(Sc1nc3ccccc3s1)n2Cc1ccccc1`: the “hERG current change (%, negative = inhibition) at 10uM” value was -41.5%.
Regarding `Cc1c(-n2c(O)c(C3=c4ccccc4=NC3=O)sc2=S)c(=O)n(-c2ccccc2)n1C`, the “hERG current change (%, negative = inhibition) at 10uM” value was found to be 15.3%.
The value for `CCOC(=O)C1CCCN(Cc2nc(Cc3ccccc3Cl)no2)C1` (centres unmarked) was -14.1%; that for `Cc1cccc2c(=O)cc(C)n(Cc3ccccc3)c12` was 18.5%; that for `C[C@]1(C(=O)NCc2cc(F)cc(C(F)(F)F)c2)C=C[C@@H](Cc2ccccc2)N1C(=O)c1ccccc1` was 5.04%.
For `COc1ccccc1NC(=O)N1CCN(Cc2ccc3c(c2)OCO3)CC1.O=C(O)C(=O)O`, the “hERG current change (%, negative = inhibition) at 10uM” value is reported as 13.3%.
As for `CCSC1=NC(=O)/C(=C2/C=Cc3ccccc3N2CC)S1`, the “hERG current change (%, negative = inhibition) at 10uM” value turned out to be 8.33%.
As for `COc1cc(OC)cc(-c2c(-c3cccs3)c3cc(-c4ccc5c(c4)OCCO5)ccc3n2C)c1`, the “hERG current change (%, negative = inhibition) at 10uM” value is reported as 21.9%.
To `COC(=O)COc1ccccc1/C=C1/NC(=O)NC1=O` belongs 5.2%.
To `O=C(C1=C[C@@H](C2CCCCC2)C[C@@H](OCc2ccc(CO)cc2)O1)N1CCN(Cc2ccc3c(c2)OCO3)CC1` belongs 4.46%.
`COc1cc(OC)cc(C2=NC3(CCC(C)CC3)NC2=S)c1` (centres unmarked): the “hERG current change (%, negative = inhibition) at 10uM” value is -22.8%.
Take `COC(=O)CSc1nc2ccccn2c(=O)c1C=O`: the “hERG current change (%, negative = inhibition) at 10uM” value is reported as 13.2%.
Regarding `COc1ccc(OC)c(Nc2nc(N)nc(-c3cc4ccccc4o3)n2)c1`, the “hERG current change (%, negative = inhibition) at 10uM” value came to 1.24%.
To `CC(=O)c1cnc(Oc2cc(Cl)ccc2Cl)nc1C` belongs 0.763%; to `Cc1cccc(OCC(=O)Nc2ccc3oc(=O)ccc3c2)c1C`, 18.3%.
Take `CCOC(=O)C(CCCCCCC(NC(C)=O)(C(=O)OCC)C(=O)OCC)(NC(C)=O)C(=O)OCC`: the “hERG current change (%, negative = inhibition) at 10uM” value is recorded as 6.26%.
With `O=C(CN(c1ccc2c(c1)OCCO2)S(=O)(=O)c1ccccc1)Nc1ccc2c(c1)OCO2`, the “hERG current change (%, negative = inhibition) at 10uM” value is 3.6%.
To `O=C(Nc1ccc(Cn2ccnc2)cc1)c1cccc(C(F)(F)F)c1` belongs 2.5%.
The value for `Cc1ccc(O)c(Nc2c3ccccc3nc3ccccc23)c1` was -52.8%.
As to `O=C1CCC/C(=N\NC(=O)c2ccc(COc3cccc4cccnc34)cc2)C1`, the “hERG current change (%, negative = inhibition) at 10uM” value was determined as 8.37%.
As for `CCn1cc(CN2CCC(C(=O)Nc3cccc(-c4cccc(Cl)c4)c3)CC2)c(C)n1`, the “hERG current change (%, negative = inhibition) at 10uM” value is recorded as -78.9%.
The value for `COc1ccc(OC)c(-n2nnnc2SCC(=O)N2CCN(C(=O)c3ccco3)CC2)c1` was -18.5%; that for `NS(=O)(=O)c1cccn1-c1ncc(C(F)(F)F)cc1Cl` was 2.8%; that for `Cc1cccc(OCc2nnc(SCc3nc4ccccc4c(=O)[nH]3)o2)c1` was 9.1%.
Consider `CNS(=O)(=O)c1ccc2c3c(cccc13)C(=O)N2C`, for which the “hERG current change (%, negative = inhibition) at 10uM” value is 4.64%.
To `CN1CCC(NCCC(c2ccc(F)cc2)c2ccc(Cl)cc2)CC1` (centres unmarked) belongs -71.5%.
With `O=c1cc(N2CCCCCC2)[nH]c(=O)n1-c1ccc(Cl)cc1`, the “hERG current change (%, negative = inhibition) at 10uM” value was found to be 12.3%.
The value for `Cc1cc(C)c(C(=O)/C=C/c2cccc3ccccc23)c(=O)[nH]1` was -18.1%; that for `CCOc1ccc(NC(=O)CNC(=O)COc2ccccc2)cc1` was 4.67%; that for `NC1=NC(=O)/C(=C/c2cccc(-c3ccc(S(N)(=O)=O)cc3)c2)S1` was -3.67%.
The value for `C#CCSc1nc(C)cc(C(=O)OCC)c1C#N` was -9.19%; that for `Cn1c(SCC(=O)c2ccc(F)cc2)ncc(C(=O)Nc2ccccc2)c1=O` was 9.49%.
